In all, about 33,000 sequences were measured (“E-score (-0.5 to 0.5)”: median about -0.01, highest 2% from about 0.26 on). This is one part of the list.
molecular target: Ste12 (UniProt P13574); assay: PBM E-score (8-mer binding enrichment) (E-score (-0.5 to 0.5)); higher = stronger / more preferred TF binding; most listed sequences are background and not binding sites; settings: protein concentration: 200 nM; construct: GST-DNA-binding domain
Protocol: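 Universal 'all 10-mer' protein binding microarrays (Agilent AMADID 015681) probed with GST-tagged S. cerevisiae TFs (full-length or DBD) made by in vitro transcription/translation (PURExpress), about 100-200 nM. Bound TF was detected with fluorescent anti-GST. Each ungapped 8-mer (which stands for itself and its reverse complement) is scored by the PBM enrichment score (E-score), a modified Wilcoxon-Mann-Whitney statistic from -0.5 to +0.5, computed with the Universal PBM Analysis Suite. Scale: above 0.35 generally sequence-specific binding.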

Row | Sequence | PBM E-score
1 | ATTTACAC | 0.18
2 | CTGTAATA | 0.119
3 | ATAAAAAT | 0.241
4 | CCCGGGGA | -0.0979
5 | CTCGAGCC | -0.0728
6 | AAGAACGC | -0.029
7 | ATTGGTTG | 0.146
8 | AGATCTTC | -0.0434
9 | GATAGAAC | 0.0461
10 | ATTGCTGA | -0.0194
11 | ATCCGGAC | -0.114
12 | TCAGTAGA | -0.0042
13 | AAGTACAT | 0.0101
14 | GGAATGAA | 0.281
15 | ACTGCCCC | -0.231
16 | AAGTTCGC | -0.125
17 | CTAGGAAG | -0.167
18 | TCCTGTCA | 0.00402
19 | AATTCCCC | 0.0771
20 | CGTGGTTC | -0.0453
21 | CACCCGTG | 0.0289
22 | GTCTATTA | -0.0569
23 | CTTTAGAC | 0.0447
24 | CCGGCATA | 0.0364
25 | CGTCTAAA | 0.145

Row | Sequence | PBM E-score
26 | GCTCGGCA | -0.0255
27 | CTGAGTAC | -0.0979
28 | GGTGCGAC | 0.0544
29 | CAATCTAC | -0.0868
30 | GCTCAATA | 0.0645
31 | CCAGATAC | -0.101
32 | GCATTATA | 0.00339
33 | ATAAATAG | 0.0906
34 | CTGCAGAC | -0.00217
35 | CAGAATAA | 0.065
36 | AGGCCTAG | -0.218
37 | AGTTCAAA | 0.138
38 | AACCCTAT | -0.00689
39 | GAAAATCC | 0.0273
40 | ACGAGATA | -0.0993
41 | AAGGACCC | -0.122
42 | AAGACCCT | -0.161
43 | GCGCACGA | 0.115
44 | GGATATCA | -0.017
45 | GTATGGAC | -0.0968
46 | CACTGCGG | 0.0551
47 | CAGAGGCC | -0.155
48 | TCTCCACA | -0.0304
49 | AACAATGC | 0.0822
50 | TTATAAAA | 0.268

Row | Sequence | PBM E-score
51 | GAACTGTC | 0.00291
52 | ACTCGCAG | -0.0659
53 | CCTCAGCA | -0.0731
54 | GAGAGGAC | -0.11
55 | AGGCGATG | -0.0741
56 | CGAACTCG | 0.00586
57 | CCTTAGAG | -0.259
58 | CCGTCGTA | 0.012
59 | CCGTAATC | -0.24
60 | CACTTGGC | -0.0811
61 | CCTATTCA | -0.0308
62 | AACTCCCC | -0.0986
63 | TCTACTCA | 0.0258
64 | TATTATAA | 0.237
65 | AGATGTCA | 0.147
66 | ACGTACAC | -0.0358
67 | AGCCTCGG | -0.0249
68 | ACGCGCGT | 0.00813
69 | AAAGGGCT | -0.18
70 | CGTACACC | -0.082
71 | GCCCCGAC | -0.135
72 | ACGGAGTA | -0.0529
73 | AGACATTG | 0.0408
74 | TACTGAAA | 0.358
75 | GGCTAAGA | -0.148

Row | Sequence | PBM E-score
76 | AGCGCCGG | 0.0998
77 | AACCAGTT | 0.227
78 | CAGGCTCA | -0.119
79 | GGTGATCA | -0.0395
80 | GGTTATGA | 0.0703
81 | AAGCTCCC | -0.24
82 | ACTTCAAT | 0.174
83 | ATTGTTGC | 0.0247
84 | AGTCCAAA | -0.0498
85 | ATTCCCTA | 0.0512
86 | AAGCGCCA | -0.163
87 | CCTTTTCA | -0.0167
88 | CTGGCGTC | -0.16
89 | CACCCGAC | 0.0001
90 | ATGTCGGC | -0.103
91 | TACCAAGA | 0.122
92 | CCCCAGCA | -0.0486
93 | GCAGTTGA | 0.0135
94 | AACTGCCC | -0.0633
95 | ACAGTTTC | 0.225
96 | AGGCCACT | -0.19
97 | TCGCAGAA | -0.146
98 | AATAGTCT | 0.0863
99 | TACACCAA | 0.116
100 | CCACAGGA | -0.0278

Row | Sequence | PBM E-score
101 | AAGAGCCC | -0.0789
102 | CCAAAACG | 0.254
103 | GAATCTCA | -0.0946
104 | CTCAGATC | 0.0449
105 | GAAGGTAA | 0.176
106 | GGATTTAC | 0.00441
107 | CCCCACGG | -0.0597
108 | ACGTGCGG | -0.0466
109 | CTCTTCTA | -0.143
110 | ATATCCTA | -0.0384
111 | GAGAAGGA | -0.169
112 | CACTATAG | -0.096
113 | AAAATGGG | -0.033
114 | CACATTAC | 0.012
115 | AGCTCGGC | -0.139
116 | AGCCACTA | -0.0478
117 | CGGTCATC | -0.164
118 | GCTACATA | -0.0491
119 | CCACGACC | -0.274
120 | AGCTACTC | -0.135
121 | CTCAGACA | 0.2
122 | AATCATTG | -0.0499
123 | TGTGGGAA | -0.0148
124 | CCGACCTC | -0.183
125 | GGCGTCGA | -0.0578

Row | Sequence | PBM E-score
126 | ATACGCAC | 0.0718
127 | ATCGTCCA | -0.165
128 | AGCCTGAT | -0.252
129 | AAGAACTG | -0.0269
130 | ACTAATGC | -0.0606
131 | ACGCCGTC | -0.0605
132 | CGCTACAA | 0.0542
133 | GTCAATAA | -0.0185
134 | TATGATGA | 0.131
135 | ACCTTATG | 0.0329
136 | CAACTCTA | 0.0135
137 | CGGAGATC | -0.029
138 | AAGCGATA | 0.00609
139 | AATGCTAG | -0.181
140 | AGTTCGCC | 0.0369
141 | ATGTGGCA | -0.065
142 | CGGACGGC | -0.171
143 | AAGTAATG | 0.24
144 | ATAAATAC | 0.25
145 | GTAAAGCA | 0.0765
146 | CCGGGCCA | 0.0191
147 | GACCCGTA | -0.101
148 | CTGAGTGC | -0.0331
149 | CTACTAAA | -0.0115
150 | CTTGGTTA | 0.052

Row | Sequence | PBM E-score
151 | CAGTCGGA | 0.014
152 | AGATCTAC | -0.00067
153 | ATAGATGC | -0.131
154 | GCGGGCGA | 0.0932
155 | AAGTTTTG | 0.116
156 | CGAAACGA | 0.205
157 | ATGCATAC | -0.0221
158 | CTTCCCCC | -0.111
159 | ACTCGGCC | -0.0192
160 | CATGCCAA | 0.0279
161 | ATGAAAGA | 0.184
162 | AACTCCCG | -0.0391
163 | TTACTCAA | 0.0705
164 | CCACGAAA | 0.125
165 | CCCTCCCG | 0.0504
166 | GAGCCATC | -0.0779
167 | AAAGCGCA | -0.123
168 | CTAAAATA | 0.181
169 | CGACTCCG | -0.128
170 | TGGGCAAA | 0.0174
171 | AAATAATC | 0.171
172 | ACGCGTTC | 0.17

From the supplement of paper PMC3334620
